From article PMC4336329 (PLoS ONE, 2015)
Out of some 310,000 compounds screened, about 2,200 (0.71%) showed an effect of 50% or more. Effects have a minus sign here. Some of the results follow.

These molecules were tested against human ether-à-go-go-related gene (hERG) potassium channel (human, UniProt Q12809) (assay: primary screen, population patch clamp on CHO cells stably expressing hERG).
Chain of human ether-à-go-go-related gene (hERG) potassium channel (Q12809 whole entry, looked up): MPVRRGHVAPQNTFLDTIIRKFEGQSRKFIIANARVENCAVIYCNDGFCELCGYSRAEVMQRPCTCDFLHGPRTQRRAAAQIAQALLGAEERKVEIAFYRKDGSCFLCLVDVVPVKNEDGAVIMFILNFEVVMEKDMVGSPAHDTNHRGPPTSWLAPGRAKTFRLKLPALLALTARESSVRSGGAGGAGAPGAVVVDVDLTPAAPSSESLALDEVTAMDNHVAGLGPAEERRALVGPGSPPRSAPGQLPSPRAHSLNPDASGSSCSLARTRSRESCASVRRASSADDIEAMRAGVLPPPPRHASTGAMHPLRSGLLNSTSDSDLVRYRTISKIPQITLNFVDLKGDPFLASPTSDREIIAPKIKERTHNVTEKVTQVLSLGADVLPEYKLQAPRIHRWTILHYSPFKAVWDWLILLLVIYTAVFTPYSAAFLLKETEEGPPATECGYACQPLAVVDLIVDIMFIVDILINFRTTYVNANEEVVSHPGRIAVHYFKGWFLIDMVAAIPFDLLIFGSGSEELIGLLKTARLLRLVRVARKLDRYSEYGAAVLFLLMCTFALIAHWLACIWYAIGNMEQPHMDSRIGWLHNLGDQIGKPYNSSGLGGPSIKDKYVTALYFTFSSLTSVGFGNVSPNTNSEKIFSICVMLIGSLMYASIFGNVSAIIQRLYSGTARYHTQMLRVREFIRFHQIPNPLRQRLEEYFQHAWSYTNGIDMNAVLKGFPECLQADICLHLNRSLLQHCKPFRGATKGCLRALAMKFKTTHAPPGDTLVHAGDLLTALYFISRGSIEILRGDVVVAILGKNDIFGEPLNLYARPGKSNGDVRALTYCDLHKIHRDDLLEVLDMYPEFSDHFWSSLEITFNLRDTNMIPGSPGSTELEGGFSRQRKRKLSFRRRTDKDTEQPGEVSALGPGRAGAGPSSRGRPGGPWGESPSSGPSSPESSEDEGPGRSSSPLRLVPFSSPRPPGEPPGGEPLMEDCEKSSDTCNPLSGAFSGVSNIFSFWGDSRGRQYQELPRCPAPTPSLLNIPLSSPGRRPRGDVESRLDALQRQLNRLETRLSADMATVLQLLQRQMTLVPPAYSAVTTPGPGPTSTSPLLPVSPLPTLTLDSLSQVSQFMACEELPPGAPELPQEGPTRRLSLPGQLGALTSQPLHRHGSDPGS

First: CN(CCCNC(=O)CCC(=O)N1CCOc2ccc(Cl)cc21)Cc1ccccc1
Second: O=C(COC(=O)c1nc(Cl)ccc1Cl)NCc1ccccc1
The “hERG current change (%, negative = inhibition) at 1uM” value of the first is lower: -48.3% for the first, 6.04% for the second.

Going from `Cc1nc(CCNC(=O)Cc2ccccc2)cs1` to `COc1ccc(CCNC(=O)Cn2nnc3ccccc3c2=O)cc1`, the “hERG current change (%, negative = inhibition) at 1uM” value rises from 8.96% to 14.1%.

Compared with `COc1ccc(OC)c(C(=O)N2CCCC(Nc3ccc(F)cc3)C2)c1` (stereo not shown), `COc1ccc(N2CCN(S(=O)(=O)c3cc(C)ccc3OC)CC2)cc1` is higher in “hERG current change (%, negative = inhibition) at 1uM” value: 0.053% for the first, 11.6% for the second.

Going from `CCN1CCN(CCCNC(=O)c2cc3cc4ccc(OC)cc4nc3o2)CC1` to `COc1ccc2cc3c(N)nn(C(=O)C4CCC(C(C)(C)C)CC4)c3nc2c1` (stereo not shown), the “hERG current change (%, negative = inhibition) at 1uM” value rises from -1.57% to 5.54%.

Compared with `Cc1csc(SC(C)C(=O)NCc2ccc3c(c2)OCO3)n1` (stereo not shown), `N#Cc1ccccc1NC(=O)COc1ccc2c(c1)OCO2` is higher in “hERG current change (%, negative = inhibition) at 1uM” value: 1.31% for the first, 13.3% for the second.

First: CC(C)(C)NS(=O)(=O)c1ccc(NC(=O)Cc2ccccc2[N+](=O)[O-])cc1
Second: CN(CC(=O)OCC(=O)Nc1ccccc1)S(=O)(=O)c1ccc(Cl)cc1
The “hERG current change (%, negative = inhibition) at 1uM” value of the first is higher: 4.39% for the first, 3.38% for the second.

Compared with `CS(=O)(=O)c1ccc(C(=O)Nc2ccc(N3CCCCC3)cc2)c(Cl)c1`, `O=S(=O)(Nc1ccc(-n2cccc2)cc1)c1ccc(Cl)cc1Cl` is higher in “hERG current change (%, negative = inhibition) at 1uM” value: 12.7% for the first, 13.5% for the second.

Going from `Cc1cccc(N2CCN(C(=O)Cc3cn(C)c4ccccc34)CC2)c1C` to `Cc1cccc(C)c1OCc1cc(C(=O)N2CCN(c3ccccc3)CC2C)no1` (stereo not shown), the “hERG current change (%, negative = inhibition) at 1uM” value rises from 1.35% to 8.33%.

Compared with `Br.O/C(=C\Sc1nnc(Cc2ccccc2)o1)c1ccc(Br)cc1`, `Cc1cccc(NC(=S)NC(=O)c2ccc(-c3ccccc3)cc2)n1` is higher in “hERG current change (%, negative = inhibition) at 1uM” value: 18.9% for the first, 30.1% for the second.

Compared with `CN1C(=O)C(=Cc2ccc(Sc3ccccc3)o2)C(=O)N(C)C1=S`, `Cn1c(SCc2c(F)cccc2Cl)nc2ccccc2c1=O` is lower in “hERG current change (%, negative = inhibition) at 1uM” value: 17.9% for the first, 13.2% for the second.

Going from `CSc1nnc(N2C(=O)C(O)=C(C(=O)c3ccco3)C2c2ccccc2F)s1` (stereo not shown) to `O=C1c2oc3ccccc3c(=O)c2C(c2ccc(O)cc2)N1c1nccs1` (stereo not shown), the “hERG current change (%, negative = inhibition) at 1uM” value rises from -4.71% to 12%.

Compared with `COC(=O)[C@@H]1C[C@@]2(O)[C@H](O)[C@H](O)[C@H](O)C[C@H]2N1Cc1cc(OC)cc(OC)c1`, `COc1cc(-c2n[nH]c(=S)n2Cc2ccccc2)cc(OC)c1OC` is higher in “hERG current change (%, negative = inhibition) at 1uM” value: 7.27% for the first, 9.08% for the second.

Compared with `C=C(C)C1Cc2c(C)nn(-c3nc(C)cc(C)n3)c2C1` (stereo not shown), `COc1ccc(Cn2nnnc2C(c2cc3ccc(OC)cc3[nH]c2=O)N2CCC(C)CC2)cc1` (stereo not shown) is lower in “hERG current change (%, negative = inhibition) at 1uM” value: 11.3% for the first, 6.05% for the second.

Going from `COC(=O)c1cc(C(=O)Nc2nnc(CC(C)(C)C)s2)cc([N+](=O)[O-])c1` to `CC(C)C(=O)Nc1ccc(C(=O)Nc2nnc(C(C)C)s2)cc1`, the “hERG current change (%, negative = inhibition) at 1uM” value rises from 12.3% to 12.5%.

Going from `Cc1ccc(OCC(=O)N2CCc3ccccc32)cc1` to `Cc1ccc(SC(=O)COc2ccccc2C)cc1`, the “hERG current change (%, negative = inhibition) at 1uM” value falls from 10.7% to 7.02%.

Going from `COc1ccc(C2c3ccc(O)cc3Oc3ncn4nc(-c5cccnc5)nc4c32)cc1OC` (stereo not shown) to `COc1ccc(-n2c(SCC(=O)N3CCCC(C)C3)nnc2-c2cccnc2)cc1` (stereo not shown), the “hERG current change (%, negative = inhibition) at 1uM” value rises from -9.08% to -5.86%.

First: O=C(OCC(=O)c1ccc([N+](=O)[O-])cc1)/C(=C/c1ccc(Cl)cc1)NC(=O)c1ccccc1
Second: CCOc1ccc(N(C(C)C(=O)N/N=C(\C)c2cccc(NC(=O)c3ccccc3)c2)S(C)(=O)=O)cc1 (stereo not shown)
The “hERG current change (%, negative = inhibition) at 1uM” value of the first is lower: -32.4% for the first, -4.78% for the second.

Going from `COc1cccc(CNC(=O)CCC2CCCN(C(=O)CCn3cncn3)C2)c1` (stereo not shown) to `COc1ccc(Cn2c(=O)[nH]c3cc(C(=O)N4CCN(c5ccccn5)CC4)ccc3c2=O)cc1`, the “hERG current change (%, negative = inhibition) at 1uM” value falls from 8.85% to 6.7%.

Compared with `O=C(NCc1ccccn1)Nc1ccc(Cl)cc1`, `Cc1cc(C)n(S(=O)(=O)c2ccc(Cl)cc2)n1` is lower in “hERG current change (%, negative = inhibition) at 1uM” value: 13.9% for the first, 13.7% for the second.

Going from `c1ccc(-c2nnc3n2NC(c2ccc4c(c2)OCO4)S3)cc1` (stereo not shown) to `O=C1C(=O)N(c2nccs2)C(c2ccccc2)/C1=C(\O)c1ccc2c(c1)OCCO2` (stereo not shown), the “hERG current change (%, negative = inhibition) at 1uM” value rises from -6.12% to 5.25%.

Compared with `Oc1c(Cl)cc(Cl)cc1CN1CCN(Cc2ccccc2)CC1`, `O=C(O)c1cc(CN2CCOCC2)oc1-c1ccccc1` is higher in “hERG current change (%, negative = inhibition) at 1uM” value: 6.04% for the first, 9.09% for the second.

Going from `O=C1OC(Cc2ccccn2)C(=O)C1=C1SCCS1` (stereo not shown) to `CCC1Oc2ccccc2N(CC(=O)NC2CCCCC2)C1=O` (stereo not shown), the “hERG current change (%, negative = inhibition) at 1uM” value rises from 9.64% to 18.3%.

First: CCC(=O)CC(c1ccc([N+](=O)[O-])cc1)c1c(O)c2ccccc2oc1=O (stereo not shown)
Second: CN(C)C(CNC(=O)c1cc2ccccc2oc1=O)c1ccccc1 (stereo not shown)
The “hERG current change (%, negative = inhibition) at 1uM” value of the first is higher: 5.63% for the first, 3.59% for the second.

Going from `Cc1ccc(S(=O)(=O)c2c(COC(=O)c3ccccc3Cl)c(-c3ccccc3)nn2C)cc1` to `O=S(=O)(c1ccccc1)n1ccc(-c2cnc(-c3ccccc3)s2)n1`, the “hERG current change (%, negative = inhibition) at 1uM” value falls from 4.54% to 3.9%.

Going from `CCOc1cc(C)c(Cl)cc1S(=O)(=O)NCC1CCCO1` (stereo not shown) to `Cc1ccccc1OCC(=O)NC1CCCCCCC1`, the “hERG current change (%, negative = inhibition) at 1uM” value falls from 11.5% to 0.489%.

Going from `O=C(c1cccc(C(F)(F)F)c1)C1CCCN(C(=O)c2cc(C3CC3)[nH]n2)C1` (stereo not shown) to `CCn1c(CNC(=O)C2CCCCC2)cc2ccccc21`, the “hERG current change (%, negative = inhibition) at 1uM” value rises from 16.9% to 21.4%.

Going from `CC(=O)Cc1nsc(NC(=O)c2ccc(F)cc2)n1` to `CCCCNc1ccc(C(=O)Nc2cccc(C)n2)cc1[N+](=O)[O-]`, the “hERG current change (%, negative = inhibition) at 1uM” value falls from 12.2% to 2.75%.

Compared with `CNC(=O)c1cccn(Cc2cc(C(F)(F)F)cc(C(F)(F)F)c2)c1=O`, `COc1ccc(/C=N/NC(=O)Cc2csc(Nc3cccc(C(F)(F)F)c3)n2)cc1C` is lower in “hERG current change (%, negative = inhibition) at 1uM” value: 12.3% for the first, -3.48% for the second.

Compared with `CCOc1cc(/C=N/n2c(COc3ccccc3)n[nH]c2=S)ccc1O`, `COc1ccc(/C=N/NC(=O)CCCOc2ccc(Cl)cc2Cl)cc1[N+](=O)[O-]` is lower in “hERG current change (%, negative = inhibition) at 1uM” value: 12.9% for the first, -1.23% for the second.

Going from `CN(C)/C=C1/N=C(c2ccccc2)OC1=O` to `O=C(O)CCn1nnc(-c2ccccc2)n1`, the “hERG current change (%, negative = inhibition) at 1uM” value rises from 0.573% to 10.7%.

Going from `CS(=O)(=O)N1CCN(C(=O)c2cc(-c3ccncc3)nc3ccc(Cl)cc23)CC1` to `O=C(O)c1cn(-c2ccc(F)cc2)c2cc(Cl)c(F)cc2c1=O`, the “hERG current change (%, negative = inhibition) at 1uM” value rises from 7.7% to 14.3%.

Compared with `CC(=O)c1ccccc1NC(=O)COc1ccc(N(C)S(=O)(=O)c2ccc(C)c(C)c2)cc1`, `COc1ccc(C(=O)n2cc(C(C)=O)c3ccccc32)cc1` is higher in “hERG current change (%, negative = inhibition) at 1uM” value: 0.287% for the first, 16.2% for the second.

Compared with `O=C(CCCN1C(=O)/C(=C/c2ccccc2Cl)SC1=S)NNC(=O)c1ccccc1`, `O=C(CN1C(=O)c2ccccc2S1(=O)=O)NCc1cccs1` is lower in “hERG current change (%, negative = inhibition) at 1uM” value: 9.51% for the first, 8.98% for the second.

First: COCC(=O)N/N=C(\C)CC(=O)NCc1ccco1
Second: O=C(NCCCCCCNC(=O)NCc1ccco1)NCc1ccco1
The “hERG current change (%, negative = inhibition) at 1uM” value of the first is lower: 3.28% for the first, 6.09% for the second.

Compared with `COc1cc(/C=C2/C(=N)N3C(=NC2=O)SN=C3S(=O)(=O)C(C)C)ccc1OC(=O)c1ccco1`, `COc1ccc(CCN(C)C(=O)CCNC(=O)c2ccc(Br)cc2)cc1OC` is lower in “hERG current change (%, negative = inhibition) at 1uM” value: 14.2% for the first, -7.28% for the second.

First: COc1ccc(-c2noc(CCC(=O)N(C)c3cccc(C)c3)n2)cc1
Second: CNC(=S)N(Cc1cccs1)Cc1cc2ccc(OC)cc2[nH]c1=O
The “hERG current change (%, negative = inhibition) at 1uM” value of the first is lower: 11.6% for the first, 14.9% for the second.

Going from `NC(=O)c1cc(S(=O)(=O)NCc2ccc(Br)cc2)cs1` to `CC(NC(=O)c1ccccc1F)c1nnc(SCC(=O)Nc2nccs2)n1C` (stereo not shown), the “hERG current change (%, negative = inhibition) at 1uM” value falls from 13.1% to 12.2%.

Compared with `O=C(CCCCCn1c(=S)[nH]c2cc3c(cc2c1=O)OCO3)N1CCN(c2ccc(F)cc2)CC1`, `CCN1CCN(Cc2ccc(NC(=O)c3ccc(C)c(NC(=O)C[C@@H]4NC(=O)[C@H](Cc5ccccc5)NC4=O)c3)cc2C(F)(F)F)CC1` is higher in “hERG current change (%, negative = inhibition) at 1uM” value: 3.85% for the first, 14.9% for the second.

Compared with `CN1CCN(CCC(=O)N/N=C/c2ccccc2F)CC1`, `CC(=O)N1Cc2ccccc2C(C)CC12CCCC2` (stereo not shown) is higher in “hERG current change (%, negative = inhibition) at 1uM” value: 6.81% for the first, 10.5% for the second.

First: Fc1ccc(C2NCCn3cccc32)cc1.O=C(O)/C=C/C(=O)O (stereo not shown)
Second: O=C(/C=C/c1ccco1)Nc1cccc(NC(=O)/C=C/c2ccco2)n1
The “hERG current change (%, negative = inhibition) at 1uM” value of the first is higher: 6.58% for the first, 4.87% for the second.

Compared with `CCCCCc1nc2ccccc2c(=O)n1-c1ccc(Cl)cc1[N+](=O)[O-]`, `Cc1ccc(NC2OC(C(O)CO)C(O)C2O)cc1[N+](=O)[O-]` (stereo not shown) is higher in “hERG current change (%, negative = inhibition) at 1uM” value: -5.99% for the first, 3.18% for the second.

Going from `N#Cc1ccc(C23CC4(C2)[C@H](CN(Cc2ccc(-c5ccccc5)cc2)[C@@H]4c2ccccc2)C3c2ccc(Cl)nc2)cc1` (stereo partly shown) to `CC(C)(C)c1ccc(S(=O)(=O)N2CCC(N3CCCCC3)CC2)cc1`, the “hERG current change (%, negative = inhibition) at 1uM” value rises from 3.17% to 7.46%.

`CCCN1CC(O)=C(C#N)C1=O` was tested, and the “hERG current change (%, negative = inhibition) at 1uM” value was 7.34%.
